Assay results published in the RNAGym collection of RNA variant scans (doi:10.1073/pnas.2313332121).
This sample is rich in variants without activity.

B1: TPR 5TU (parent)
chain: GGAUCUUCUCGAUCUAACAAAAAAGACAAAUCUGCCACAAAGCUUGAGAGCAUCUUCGGAUGCAGAGGCGGCAGCCUUCGGUGGCGCGAUAGCGCCAACGUUCUCAACUAUGACACGCAAAACGCGUGCUCCGUUGAAUGGAGUUUAUCAUG

Variants of: B1
Test: polymerase ribozyme fitness, log enrichment relative to wild type (log ratio); higher = more active; in vitro selection for triplet polymerase activity
Summary of the method: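 Both subunits of a heterodimeric triplet polymerase ribozyme were given their own mutant library, built by PCR and transcribed. Each library was annealed with a biotinylated primer, the partner subunit and triplets, incubated frozen at −7 °C, and its extended constructs gel-excised, captured on streptavidin beads and amplified by RT-PCR, all in one round done in triplicate. Fitness is the logarithm of genotype enrichment relative to wild-type enrichment, with replicates averaged by inverse-variance weighting. That logarithm is base 2, and Illumina-sequenced genotypes needed ≥10 input reads and ≥1 read per output.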

Polymerase ribozyme fitness (log ratio), -3.86:
A21C C36A C95G

Polymerase ribozyme fitness (log ratio), 0.298:
A21G G58C

Polymerase ribozyme fitness (log ratio), -0.816:
A21U A22U U53G

Polymerase ribozyme fitness (log ratio), ≤ -4.2:
A21G A26C A66U C87G A115C U134C U146A
A21G C27U A28U U55G C93U
A21U A73G C96U A115G U127A
A21C A47C G86U G140A U145G
A21U A26G A52G G58A U78A G100A U134C
A21U G65C G68U C85G G92A G117A A138U
A21G G86C A91U C95U
A21G A29U G50C G62U C69U C93A
A21G C57A G74A C76G C87U G124U
A21G U44A G83A U102G U109G C118G G136A
A21C G34A C43U A60C A64G A91U
A21U G67A U102G G117A G124U
A21C U33A C116G C129U U145A
A21C U90A C103A G133C A142G
A21U C27U A28U C57U
A21U G50A C75U G81A G136U
A21U A24U G94U A97G A150C
A21U A24G C51U A119U
A21G A28C U53A C75A G86A U127A G140A
A21U A26C A39G A40C G50A G68C C72G U111C
A21U C43U G84A C87U G88A A119C C131A U145A
A21U C35G U82G A91G C99U C116A C118U C149U
A21C C38U G46C U53G G88U A122U G126A U135C C149G
A21U A23C U45C A64U C85U C105G C149G
A21U A26U G59A U111A A137U A142U
A21C C54G U78A
A21U C72U U77G U82G G100C U135G
A21C G65C A137U
A21U C75A C76G A107U
A21G G83A C108U G140C
A21G C54G G92C C108U G124A G133A
A21G U53A C57A G68A C69U C93U G140U
A21U C54A G68C C85U C103U A106U G133U
A21U C85U C96U C114G G140A
A21U A26U A60C C85U G92U C103A C116A A120U
A21U A23U A40U C57U C63A G92C A121G C125G A147C
A21C C36A U55C
A21C C32A C96A A98C G136A U144C
A21U G25U U31A C85A A97U A110G
A21G G46A G50A U53A U56A G94C
A21U C36A G50U U55A C57G G62A G68U C85G C103A G128A
A21G G84A A97C C103G G141A
A21C G70C C85U G128C
A21U A29U U44A A52C C54G G68C G92C A106U
A21C A91G C114G C125G
A21C A49C C103G G117A G140C U151G
A21U A113C U127G C132U
A21C U45G C54G G143C
A21G U55A C57U A107C C129U
A21C C43U C105U C116A A137U
A21G U33A G88U U90G C114A U144C
A21C U31A U45G A52G C108U
A21G G42A C54U G59C G88C G92A
A21U C27G C93U A138C A147C
A21U A24C G25A G34A G58C A91C U104C A107C A110G
A21C G88U A142U
A21G A26C A49G G50A A64C U90G G94A G124U
A21U A29C C95A U101G G126C U135G G143U
A21G U33C A47G G58C C95A G128A A150U
A21C A30C A52U G65U G92U A115C C116A
A21C C32G G50A C93U A119U
A21U A26C C51U C87U A142C
A21C C51G C79A C116U
A21U A39U C79G G86A
A21C U53A A91U C95G U134A U139C G152U
A21U G25U U44A C54G G92C C132G A137C
A21G A39U G46A U78G A91C G124U
A21C C27U C76A G84A C95A G126A G141A A150C

Polymerase ribozyme fitness (log ratio), -2.85:
A21U A91G

Polymerase ribozyme fitness (log ratio), -4.13:
A21C C75G C96G C131G

Polymerase ribozyme fitness (log ratio), -2.01:
A21U C85A A97U

Polymerase ribozyme fitness (log ratio), -3.11:
A21C U148A

Polymerase ribozyme fitness (log ratio), -2.89:
A21C C95U C129A

Polymerase ribozyme fitness (log ratio), -0.0103:
A21U G50C C54U C63U G94A

Polymerase ribozyme fitness (log ratio), 0.957:
A21G A40U

Polymerase ribozyme fitness (log ratio), -1.59:
A21G U55G G143C

Polymerase ribozyme fitness (log ratio), 0.375:
A21U C51U G126U

Polymerase ribozyme fitness (log ratio), -3.89:
A21G A52C C75G C85U A89G C96G A150G

Polymerase ribozyme fitness (log ratio), -0.141:
A21C U55G C93U G126U

Polymerase ribozyme fitness (log ratio), -0.875:
A21G G50U G92U A147C

Polymerase ribozyme fitness (log ratio), -0.924:
A21C A52C C85U G117C
